These are yes or no findings as the source states them, for the method shown. In cells and extracts the contact can be indirect. Some entries that bind do so weakly or less than the wild type. For part of these data: Sequences can lack the tags named with a protein. Values belong to the molecule of their own block, whether it stands above or below them.
Legend:
[1] = biological target: T1, Migration and invasion inhibitory protein (MIIP), Flag-tagged, from pCMV-MIIP-Flag (UniProt Q5JXC2); assay: co-IP; HepG2 and T47-D cells transfected with pCMV-MIIP-Flag for 48 h; lysis buffer 30 mM Tris pH 7.5, 150 mM NaCl, 1% Triton X-100; immunoprecipitation with anti-Flag at 4°C, immunoblot with anti-AZGP1
T1 sequence: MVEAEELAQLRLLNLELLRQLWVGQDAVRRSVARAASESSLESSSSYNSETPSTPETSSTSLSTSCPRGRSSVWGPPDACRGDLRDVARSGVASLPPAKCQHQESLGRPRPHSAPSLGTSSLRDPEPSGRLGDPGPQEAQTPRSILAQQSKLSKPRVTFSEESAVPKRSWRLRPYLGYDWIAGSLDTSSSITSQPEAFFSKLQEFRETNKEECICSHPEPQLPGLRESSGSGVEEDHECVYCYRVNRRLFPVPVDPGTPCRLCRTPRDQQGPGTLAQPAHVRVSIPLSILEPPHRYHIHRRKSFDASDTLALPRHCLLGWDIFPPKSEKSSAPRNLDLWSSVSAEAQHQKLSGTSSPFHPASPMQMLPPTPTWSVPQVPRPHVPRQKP

The chains behind the UniProt entries cited, without tags or fusion partners. Residues count along the entry.
UniProt P25311, residues 21-298: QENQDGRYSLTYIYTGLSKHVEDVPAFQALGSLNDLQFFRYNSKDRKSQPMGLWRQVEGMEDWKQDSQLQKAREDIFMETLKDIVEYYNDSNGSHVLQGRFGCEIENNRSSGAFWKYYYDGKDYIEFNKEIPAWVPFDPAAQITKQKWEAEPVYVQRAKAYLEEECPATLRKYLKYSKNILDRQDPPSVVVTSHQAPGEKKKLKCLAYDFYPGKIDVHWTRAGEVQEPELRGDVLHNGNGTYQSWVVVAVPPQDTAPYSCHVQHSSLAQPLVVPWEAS

[2] = biological target: T2, MIIP in HepG2 and T47-D cells (endogenous or transfected not shown) (human) (UniProt Q5JXC2); assay: co-IP; HepG2 and T47-D cells with high endogenous AZGP1; antibodies not shown
T2 sequence: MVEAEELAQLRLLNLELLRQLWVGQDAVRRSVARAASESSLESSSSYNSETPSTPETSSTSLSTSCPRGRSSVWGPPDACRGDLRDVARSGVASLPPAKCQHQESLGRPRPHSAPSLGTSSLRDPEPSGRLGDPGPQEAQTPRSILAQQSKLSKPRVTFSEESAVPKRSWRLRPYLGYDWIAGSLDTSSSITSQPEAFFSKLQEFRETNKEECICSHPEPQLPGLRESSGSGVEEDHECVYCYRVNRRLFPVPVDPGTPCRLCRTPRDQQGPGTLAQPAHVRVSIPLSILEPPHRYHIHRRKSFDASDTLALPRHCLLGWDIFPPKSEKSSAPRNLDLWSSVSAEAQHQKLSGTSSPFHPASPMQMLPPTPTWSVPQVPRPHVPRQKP

[3] = biological target: T3, MIIP-Flag (migration and invasion inhibitory protein, from pCMV-MIIP-Flag) (human) (UniProt Q5JXC2); assay: co-IP; HCT116 cells transfected with pCMV-MIIP-Flag; immunoprecipitation with anti-Flag, immunoblot with anti-AZGP1
T3 sequence: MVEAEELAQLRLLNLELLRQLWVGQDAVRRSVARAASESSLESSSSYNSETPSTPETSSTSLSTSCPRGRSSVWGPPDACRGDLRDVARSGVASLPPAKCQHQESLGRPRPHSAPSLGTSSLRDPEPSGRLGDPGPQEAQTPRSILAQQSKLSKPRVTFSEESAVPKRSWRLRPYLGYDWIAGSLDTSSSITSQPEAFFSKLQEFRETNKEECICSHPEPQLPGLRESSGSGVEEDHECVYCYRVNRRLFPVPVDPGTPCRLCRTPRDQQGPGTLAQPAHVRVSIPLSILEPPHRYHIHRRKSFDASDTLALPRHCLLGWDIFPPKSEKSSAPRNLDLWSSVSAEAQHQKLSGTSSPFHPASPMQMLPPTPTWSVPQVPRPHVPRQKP

[4] = biological target: AZGP1-6 × His, wild type (pEX-3-AZGP1-6 × His) (human) (UniProt P25311); assay: co-IP; HCT116 and HepG2 cells overexpressing AZGP1-6 × His, with or without ectopic MIIP (pCMV-MIIP-Flag); lysates precipitated with anti-His, immunoblotted with anti-AZGP1, anti-MIIP, anti-STT3A and anti-STT3B
[5] = biological target: AZGP1-6 × His, wild type (pEX-3-AZGP1-6 × His) (human) (UniProt P25311); assay: co-IP; HCT116 co-transfected with pEX-3-AZGP1-6 × His and pCMV-MIIP-Flag for 48 h; ER protein extract; precipitated with anti-His, immunoblotted with anti-AZGP1 and anti-MIIP

binding [1]: binds
Molecule: Alpha-2-glycoprotein 1, zinc-binding (AZGP1), endogenous (from UniProt P25311 21-298)

binding [2]: binds
binding [3]: binds
Molecule: AZGP1 (alpha-2-glycoprotein 1, zinc-binding), endogenous (from UniProt P25311 21-298)

binding [4]: no binding
B1: STT3B, catalytic subunit of the N-oligosaccharyl-transferase (OST) complex (enzyme, UniProt Q8TCJ2 1-826)
chain: MAEPSAPESKHKSSLNSSPWSGLMALGNSRHGHHGPGAQCAHKAAGGAAPPKPAPAGLSGGLSQPAGWQSLLSFTILFLAWLAGFSSRLFAVIRFESIIHEFDPWFNYRSTHHLASHGFYEFLNWFDERAWYPLGRIVGGTVYPGLMITAGLIHWILNTLNITVHIRDVCVFLAPTFSGLTSISTFLLTRELWNQGAGLLAACFIAIVPGYISRSVAGSFDNEGIAIFALQFTYYLWVKSVKTGSVFWTMCCCLSYFYMVSAWGGYVFIINLIPLHVFVLLLMQRYSKRVYIAYSTFYIVGLILSMQIPFVGFQPIRTSEHMAAAGVFALLQAYAFLQYLRDRLTKQEFQTLFFLGVSLAAGAVFLSVIYLTYTGYIAPWSGRFYSLWDTGYAKIHIPIIASVSEHQPTTWVSFFFDLHILVCTFPAGLWFCIKNINDERVFVALYAISAVYFAGVMVRLMLTLTPVVCMLSAIAFSNVFEHYLGDDMKRENPPVEDSSDEDDKRNQGNLYDKAGKVRKHATEQEKTEEGLGPNIKSIVTMLMLMLLMMFAVHCTWVTSNAYSSPSVVLASYNHDGTRNILDDFREAYFWLRQNTDEHARVMSWWDYGYQIAGMANRTTLVDNNTWNNSHIALVGKAMSSNETAAYKIMRTLDVDYVLVIFGGVIGYSGDDINKFLWMVRIAEGEHPKDIRESDYFTPQGEFRVDKAGSPTLLNCLMYKMSYYRFGEMQLDFRTPPGFDRTRNAEIGNKDIKFKHLEEAFTSEHWLVRIYKVKAPDNRETLDHKPRVTNIFPKQKYLSKKTTKRKRGYIKNKLVFKKGKKISKKTV

binding [4]: binds
B2: STT3A, catalytic subunit of the N-oligosaccharyl-transferase (OST) complex (enzyme, UniProt P46977 1-705)
chain: MTKFGFLRLSYEKQDTLLKLLILSMAAVLSFSTRLFAVLRFESVIHEFDPYFNYRTTRFLAEEGFYKFHNWFDDRAWYPLGRIIGGTIYPGLMITSAAIYHVLHFFHITIDIRNVCVFLAPLFSSFTTIVTYHLTKELKDAGAGLLAAAMIAVVPGYISRSVAGSYDNEGIAIFCMLLTYYMWIKAVKTGSICWAAKCALAYFYMVSSWGGYVFLINLIPLHVLVLMLTGRFSHRIYVAYCTVYCLGTILSMQISFVGFQPVLSSEHMAAFGVFGLCQIHAFVDYLRSKLNPQQFEVLFRSVISLVGFVLLTVGALLMLTGKISPWTGRFYSLLDPSYAKNNIPIIASVSEHQPTTWSSYYFDLQLLVFMFPVGLYYCFSNLSDARIFIIMYGVTSMYFSAVMVRLMLVLAPVMCILSGIGVSQVLSTYMKNLDISRPDKKSKKQQDSTYPIKNEVASGMILVMAFFLITYTFHSTWVTSEAYSSPSIVLSARGGDGSRIIFDDFREAYYWLRHNTPEDAKVMSWWDYGYQITAMANRTILVDNNTWNNTHISRVGQAMASTEEKAYEIMRELDVSYVLVIFGGLTGYSSDDINKFLWMVRIGGSTDTGKHIKENDYYTPTGEFRVDREGSPVLLNCLMYKMCYYRFGQVYTEAKRPPGFDRVRNAEIGNKDFELDVLEEAYTTEHWLVRIYKVKDLDNRGLSRT

binding [5]: binds
B3: MIIP-Flag (migration and invasion inhibitory protein, from pCMV-MIIP-Flag) (protein, UniProt Q5JXC2 1-388)
chain: MVEAEELAQLRLLNLELLRQLWVGQDAVRRSVARAASESSLESSSSYNSETPSTPETSSTSLSTSCPRGRSSVWGPPDACRGDLRDVARSGVASLPPAKCQHQESLGRPRPHSAPSLGTSSLRDPEPSGRLGDPGPQEAQTPRSILAQQSKLSKPRVTFSEESAVPKRSWRLRPYLGYDWIAGSLDTSSSITSQPEAFFSKLQEFRETNKEECICSHPEPQLPGLRESSGSGVEEDHECVYCYRVNRRLFPVPVDPGTPCRLCRTPRDQQGPGTLAQPAHVRVSIPLSILEPPHRYHIHRRKSFDASDTLALPRHCLLGWDIFPPKSEKSSAPRNLDLWSSVSAEAQHQKLSGTSSPFHPASPMQMLPPTPTWSVPQVPRPHVPRQKP

Source: PMC10800076
